# Test results taken from the supplement of paper PMC12217912.
# The other results are listed elsewhere or left out. Sequences were assembled here from the parent chain. Inactive controls read about 0.05.
# B1: TEV protease; numbered along this chain (parent)
# chain: MGESLFKGPRDYNPISSSICHLTNESDGHTTSLYGIGFGPFIITNKHLFRRNNGTLVVQSLHGVFKVKDTTTLQQHLVDGRDMIIIRMPKDFPPFPQKLKFREPQREERICLVTTNFQTKSMSSMVSDTSCTFPSGDGIFWKHWIQTKDGQCGSPLVSTRDGFIVGIHSASNFTNTNNYFTSVPKNFMELLTNQEAQQWVSGWRLNADSVLWGGHKVFMVKPEEPFQPVKEATQL
# Variants of: B1
# Test: raw area under fraction-flipped curve 0-4 h after induction (AUC4h, not background-subtracted), DNA-recorder readout of cleavage of the substrate (dimensionless); higher = more cleavage of the substrate by the protease variant
# Details: temperature: 34 °C; time window: 0-4 h after rhamnose induction
# 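Note: Bxb1 expression induced with 0.2% (w/v) L-rhamnose at OD600 near 0.5, cultures sampled hourly, flipped fraction per protease–substrate barcode pair counted by paired-end Illumina sequencing.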
Variant,area with substrate ENLDFQS,area with substrate ENLEFQS,area with substrate ENLFFQS,area with substrate ENLHFQS,area with substrate ENLIFQS,area with substrate ENLKFQS,area with substrate ENLNFQS,area with substrate ENLPFQS,area with substrate ENLRFQS,area with substrate ENLSFQS,area with substrate ENLWFQS,area with substrate ENLGFQS,area with substrate ENLLFQS,area with substrate ENLMFQS,area with substrate ENLQFQS,area with substrate ENLTFQS,area with substrate ENLVFQS
Q194R,0.0664,0.0727,0.0853,0.0742,0.0621,0.0828,0.0618,0.0537,0.0797,0.0606,0.0577,–,–,–,–,–,–
T181M,0.0606,0.0671,0.0893,0.0572,0.062,0.0659,0.0619,–,0.0921,0.112,–,0.0527,0.0624,0.0736,–,–,–
P155L,0.0508,0.0444,0.0613,0.051,0.0569,0.0436,0.0593,0.0469,0.0467,0.0525,0.0463,0.0473,0.058,0.0552,0.0389,0.0687,0.0522
F218P,–,–,0.0632,–,–,0.066,0.0506,0.0575,–,0.0618,0.0767,–,0.0615,0.0572,–,–,0.0522
E107A,0.0702,–,0.108,0.0711,0.0712,0.0377,0.0732,0.0647,–,0.065,0.074,0.0716,–,–,0.073,–,–
I145D,0.0685,0.0677,0.0523,0.0682,0.0602,0.059,0.054,–,0.0575,0.0586,0.0374,–,0.0343,–,0.0678,–,–
W203Y,0.051,0.0853,0.0911,0.0661,0.0615,–,–,–,–,–,–,–,0.0567,0.0746,0.0631,–,–
K142T,0.066,0.09,0.081,0.0642,0.0907,0.0738,0.0622,0.0607,0.0725,0.0696,–,0.0699,0.0714,0.0875,0.0607,–,0.0661
S169F,0.0487,0.059,0.0568,0.06,–,0.0546,0.0589,0.0756,0.0608,0.057,0.0488,–,–,–,–,–,0.069
S201K,–,–,–,–,–,0.0797,0.0545,0.0429,–,0.0802,0.0615,–,0.0955,–,–,–,–
F180C,0.0596,0.0538,0.0707,0.0669,–,–,0.0511,0.067,0.0634,–,–,0.072,0.0583,–,0.0614,–,–
G166R,0.0586,0.0694,0.0621,0.053,0.0552,0.0515,0.0577,0.0665,0.0665,0.0496,0.0592,0.0499,0.0446,–,0.0594,–,0.052
K185T,0.0649,0.0603,0.0805,0.083,–,0.0743,0.0684,0.0468,0.0687,0.063,–,0.0696,0.0672,0.0796,0.0673,0.0625,0.0981
C111L,–,–,0.101,0.0712,–,0.0663,0.0661,–,–,0.0391,0.0665,–,–,–,0.0718,–,–
V200N,0.0559,0.0571,–,0.0503,0.053,0.0827,–,0.0452,–,0.0502,–,–,–,–,–,–,–
K230E,0.0612,–,0.0825,0.0675,0.0695,0.0763,0.0661,–,–,0.0735,–,–,–,–,0.0815,–,–
Q227I,0.0679,0.0709,0.0726,0.0691,–,0.0823,0.0691,–,0.0645,0.068,0.0563,0.075,0.101,–,0.0659,–,–
T114F,0.0545,0.0647,0.0878,0.0695,0.0907,0.0939,–,0.0667,0.099,–,0.0739,–,0.0589,–,0.0674,–,0.0922
